Measurements taken from the supplement of paper PMC11417369.
The list shows a part of the results.

System: PfSIP2 AP2 domain 1 (GST-tagged)
Assay: gcPBM binding intensity (ln(normalized median fluorescence intensity)); higher = stronger DNA binding
Method in brief: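 Probes on an Agilent 4 × 180k array were primer-extended, double-stranded and 36 bp long, taken from intergenic genomic regions, with negative controls added. GST-tagged P. falciparum DNA-binding domains from E. coli, about 25 μg on average, were applied to the array for 1 h in 1× PBS containing 1% milk, 0.2 mg/ml BSA, 0.5% salmon testes DNA and 0.03% Triton X-100. Binding intensity, obtained after Alexa488 anti-GST antibody detection and a 488 nm scan, is the highest Masliner-normalised natural-log median intensity across replicate spots of either probe orientation.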

In order of falling “gcPBM binding intensity (ln)” value:
1. TATTTGTTGTGAGTCACACATATATATATATATATA [CACACA_site4240]  9.59
2. TTAATACATATATATATATTATATATATATATATAT [TGCATGCA_negctrl_site177]  9.12
3. GATATAAAATATTGGTGTACTTTTTTTTTTTTTTTT [XGTACX_site7174]  7.74
4. TACTATAAGATATATACACACAAGAAATACAAAACG [CACACA_site6764]  7.53
5. TTTCTAATTCTTAGTGGTACACAGTTCTGCTGATAT [XGTACX_site2391]  7.5
6. AAAAAAAAAAAAAAAACACACAGAACAATATATAAA [CACACA_site4698]  7.4
7. TGCTTAATTTACGTGGGTACATACACCTCATATATT [XGTACX_site3093]  7.29
8. CCCTTTTATTAAAATTCACACACATAAATTTTTATA [CACACA_site8611]  7.28
9. CACATACATATATATACACACAAATATATATACACA [CACACA_site8164]  7.25
10. TATATGCATATACATACACACATAACACATACGTTT [CACACA_site3832]  7.23
11. TTACCGTAAAAATTTTGTACATAAAATAATATATAA [XGTACX_site532]  7.23
12. TTGTTTTTTTTTGGCTGTACGTTCATAAATTTTTTT [XGTACX_site4165]  7.22
13. ATATATGTATATTTTTGTACGCATAAATATATTTTT [XGTACX_site827]  7.13
14. ATATGTCACTTGTATACACACATATAGATTTCAATC [CACACA_site7519]  7.11
15. ATATTGTAAGTAAACACACACACATATATATGTATA [CACACA_site8124]  7.11
16. TTTTTATACAATTAGACACACACAAAAAGTATATAT [CACACA_site8272]  7.11
17. TATTTTTCCATAAAAATTTATATAGAAACAAATAAT [GTGCAC_negctrl_site103]  7.11
18. ATACACATTCGAAATAACAAAAAAATACATACACAT [GTGCAC_negctrl_site628]  7.04
19. AAAATATCTTATATATGTACATATTTATATTTATAT [XGTACX_site6027]  6.96
20. TTTTCATAAAATCATTGTACATTTATCGTATATTAA [XGTACX_site3855]  6.95
21. ATGATTATTTTAAAAAGTACTAATTATTATTTTTTT [XGTACX_site7242]  6.93
22. AAAAAAAATAATAATACACACAATATGATATGTACA [CACACA_site850]  6.87
23. GAATATGAATATTTGCGTACTTATATAACTGTTCTA [XGTACX_site883]  6.83
24. ATTATTTTAATTTTAATTTTTTTTTTTTTTTGTTTT [CACACA_negctrl_site1063]  6.62
